# Test results taken from the supplement of paper PMC11417369.
# The other results are listed elsewhere or left out.
# Test system: PfAP2-HC AP2 domain (GST-tagged)
# Test: gcPBM binding intensity (ln(normalized median fluorescence intensity)); higher = stronger DNA binding
# Outline: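 Binding intensity values are the highest Masliner-normalised natural-log median intensity among replicate spots of either probe orientation. The binding step lasted 1 h in 1× PBS with 1% milk, 0.2 mg/ml BSA, 0.5% salmon testes DNA and 0.03% Triton X-100, using GST-tagged P. falciparum DNA-binding domains expressed in E. coli on an Agilent 4 × 180k array of primer-extended double-stranded 36-bp intergenic genomic probes plus negative controls. Alexa488 anti-GST antibody and a 488 nm scan detected bound protein.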
row,Sequence,gcPBM binding intensity (ln)
1,ACTCTTGATCTGAATGCACACAATAAATTATATAAA [CACACA_site1438],9.69
2,ATATATTATATATATTGTACATGTAAAATTTTAAAA [XGTACX_site7197],9.74
3,AAAAATTTGGCATACACACACACACCCACACCCACA [CACACA_site587],10.4
4,TATGTATTTAAATTAACACACATATGTGGTTAATAG [CACACA_site5697],9.58
5,ACATATATATATATATATATATATATATCATTATGT [CACACA_negctrl_site724],9.54
6,TACTGCCTTCCATACCCACACACTTCCCATATATTT [CACACA_site2705],10.1
7,AAAACGCTACATAATTGTACATGTAGAAATAAAAGC [XGTACX_site2895],10
8,TCTAAAAATAAGAACACACACATATAAGCATATAAA [CACACA_site2274],10.2
9,ATTTAAAAAAAAAAAACACACATGTGAATAGAAAAG [CACACA_site3323],10.1
10,AGTATAATAATATTTACACACGCATATGTTATATAT [CACACA_site1476],9.84
11,CATACAAATTAATATGTACACACAAATATATATATA [CACACA_site8605],9.92
12,AGTAGTCTGGAGAAAAGTACATAGTATCTGGTAACC [XGTACX_site2024],9.74
13,TTTTACAATAATAAGTAGATCTAAATAAAGATTTAA [GTGCAC_negctrl_site547],9.45
14,TTTTTTTTTTTTTTTTGTACATATTTTAATTTGTTT [XGTACX_site6297],9.11
15,TTTATATTATTTAATGAGAAATAATTATAAACAATT [TGCATGCA_negctrl_site65],9.4
16,TTCCAAAATTGCACATGTACAAAATTCTCCAATATG [XGTACX_site3419],9.54
17,AAAAAAAAAAAATAATGTACATATGTATTTGAGAAA [XGTACX_site3572],9.66
18,TATGTATATATATATATATATATATATATATATATA [TGCATGCA_negctrl_site491],9.62
19,ATGGCCACTGTGAAATGTACAAAAAAAAAATACAAT [XGTACX_site2874],9.64
20,TATGTGCACCCATGTACATGCGGACATATGTTATAT [TGCATGCA_site383],9.83
21,TTGCCCATTTAATTAACACACAAATATTTATATTCT [CACACA_site738],10
22,GTTAAATAATATATATGTACATACATAAGTGTTACT [XGTACX_site4778],9.76

row,Sequence,gcPBM binding intensity (ln)
1,ATTTCCTTTTGTTTCAGTACATAATTTTTTTTTTTT [XGTACX_site4842],10
2,GATATTCATAGAAACACACATACAAATTATGTATAT [CACACA_site144],9.77
3,TAATTGTACGCCAATACACACAGAATTAAAATGTAG [CACACA_site4234],9.83
4,TTTTTAAAGTTTTATACACACACCAAAATTATTCTA [CACACA_site600],9.84
5,GAAAAAATTTTATGGTGTACTTTATTTATTTATATA [XGTACX_site6323],9.7
6,ATGTTGTGTATATATACACACATACATATATATATA [CACACA_site8461],9.92
7,GAAATATTTAGACACACACACAAACATATAAATATA [CACACA_site6980],11.1
8,GATTATATTATATATTAAATATAAATATGTATTATA [TGCATGCA_negctrl_site66],9.46
9,AATGGAAATGTAAAATGTACAGGACGCACACACATA [XGTACX_site7788],10.4
10,AATGAGAAGGACTGCACACTAAAATGGAAGGAGAAA [CACACA_site1575],9.94
11,AAAAAAAATTAAAATAAATTAAAAAGTAATTATATA [GTGCAC_negctrl_site615],9.48
12,ATTAAGTTCAAATGTAGTACGTGTAAAAAAAAAAAA [XGTACX_site1578],9.78
13,TACCATGTTCAAATTACACACATATAATGTAATATA [CACACA_site5150],9.68
14,ATATATAATATTTTTATTTTTATTTTTTTTTTATGA [TGCATGCA_negctrl_site577],9.41
15,TTTATATATGTAAATGCACACATATGTGTATATACT [CACACA_site8493],10
16,AAAATAAATAAATAAATAAATATATATATATATATA [XGTACX_negctrl_site345],9.54
17,TATAGGTATATATTATGTACTTATAATTATATAGAT [XGTACX_site1912],9.51
18,TTATTACATGTTACTTAACACACATCTGGTGAAATA [CACACA_site7939],9.7
19,GGAAAGACAGTTCACAGTACCCAGTAAACTCTACGG [XGTACX_site2557],9.61
20,AAAATATAGTAATATATATATGTATATTATTTGTGG [CACACA_negctrl_site1590],9.77
21,TGTCTTTAAATTTCTCAACACACAGTTATAAAAAAT [CACACA_site8930],9.46
22,GGGTCAAGTAAGCTGTTCCTCTTTTTCTTTCTCACT [GTGCAC_negctrl_site473],10

row,Sequence,gcPBM binding intensity (ln)
1,TATAAATTTAAAATGACACACACTAATATTATTTAA [CACACA_site8334],10.1
2,ATACGATTGAAACATTGTACATGAATATAAAAAAAT [XGTACX_site5704],9.72
3,TTGTATATATATGGAAAAATATATATATATATATAT [GTGCAC_negctrl_site591],9.36
4,TTTATTTATAGACACACACACAAAAAAAAAAAAAAA [CACACA_site7280],10.3
5,CATTTATATTATAAATGTACAAAGTTCGTTTGTTCC [XGTACX_site1305],9.53
6,TTTTTTTTTTTTTTTATAAAAGATAATTTTTTTTTA [CACACA_negctrl_site133],8.99
7,TCAAAGCACACATACACACACATATAGATTTATATA [CACACA_site6272],10.2
8,TAAATAAATATATATTCACACACAAACATATATATA [CACACA_site9332],10.5
9,TCTTCATAAAAATAAAGTACATTATATATATAAATA [XGTACX_site3775],9.37
10,TAAACGTTAGTATGTGTGCACATTAGTAATTTAAAA,10.1
11,TTTTTATTATTCTTAAGGATATAACAAAAAAGAAAA [XGTACX_negctrl_site584],9.36
12,ATTAATATTATTAGAAGTACTAATAGTAGTATAACT [XGTACX_site1325],9.61
13,TTCTAAAAAAATAAAATTATCAAGGTTTTTAAACGT [CACACA_negctrl_site308],9.45
14,GCATCCCTTTTTATGTGTACATACAAAGGCAATTAC [XGTACX_site6977],9.82
15,AAAATATAAATCTAAGCATGCAAAAAAAATTTATAA [TGCATGCA_site1008],9.72
16,TATTGTTTTAAAGAGACATGCAATATATATTATTCC [TGCATGCA_site752],9.53
17,TAATATTATAGATAAACACACATACACATGTAAATA [CACACA_site7049],9.93
18,AAATGAAATTTGTATACACACAAATATATATATATA [CACACA_site836],9.99
19,TTTTTATTCGATGATCAAATAGGTATATACAAAAAA [CACACA_negctrl_site1813],9.44
20,AATAATAATAGTAATATGTACATATATATATATATA [TGCATGCA_negctrl_site542],9.72
21,TATAAGCAAAAACACACACACATATATATATATATA [CACACA_site3804],10.2
22,TTATTTAAAAAAAAGTGTACCCATATATTATAAATC [XGTACX_site8374],9.52

row,Sequence,gcPBM binding intensity (ln)
1,AATTTATATTTTCGTAGTACGTATTTTATTCTTTTG [XGTACX_site4162],9.79
2,TATAAGGTGTCCTATACACACTCCAATAGATATATA [CACACA_site7066],9.62
3,CTGAACCCGTTATGGTGTACATAAAATAAGACACAG [XGTACX_site3484],9.6
4,ATTACATGCAATATATGTACGTAATATATATATATA [XGTACX_site2300],9.61
5,TGCATGCATTATCATAGTACATATAATGTTGTATAA [XGTACX_site2775],9.5
6,TAATCTTTCGTACATGTACACACAGAAAAAAAAAAA [CACACA_site8798],9.66
7,ATTATTAAGTTTCACAAGAACATTGTTAACAATTTT [CACACA_negctrl_site1128],9.59
8,TATTAAGTATTTTACGTACACACTTATAAATGTACA [CACACA_site3885],9.56
9,AATAATCATGATCAAAGTACTTATGAATACCAAAAA [XGTACX_site2572],9.84
10,AAAAAAAAAAAGTACACACATACATATAAATATATA [CACACA_site1809],9.86
11,AAAGACGCAAAATTGGTGCGCTGCTTTTAGCATTTT,9.58
12,ACAGAATATTTAATTCAACACACATACATATTTATT [CACACA_site8734],9.96
13,ATTTATATCCTTAAACGTACATTGTATTGTATTTTA [XGTACX_site6080],9.76
14,AAAATTATTTTTATGTGTACTTATTTATTATTTATA [XGTACX_site6665],9.81
15,TGATAACCTAATAATACACACACATGAATATATATA [CACACA_site8226],10
16,GTCGCCAAAAGGTGTACACATAATGCATTATCATAA [CACACA_site6112],9.78
17,TAAAAAAAATAGCATACACACATATATACATATATA [CACACA_site658],10
18,ATTAAAAAATTATTCACACAAAATAAAAAAATGAAA [CACACA_site4918],9.65
19,TACACATAATATAATGCATGTGTGATGTATGTTTAA [TGCATGCA_site697],9.76
20,ATATTTAGGATTATCTGTACATAATATGTTTAATTA [XGTACX_site3426],9.6
21,AAATATTTGGAGAAATGTACATATTATAAATATATT [XGTACX_site6885],9.78
22,CTAGGAAATTATATGGGTACTCATATTCATAAAAAA [XGTACX_site1846],9.41
